What follows are molecules tested on MLKL phosphorylation, HT29-L23 human colorectal adenocarcinoma cells (assay: cells). Details: read-out: pMLKL HCS Cell Assay (IC50, uM).
Work on `Cc1ccc(-c2cc(C(F)(F)F)c3c(N)ncnn23)c(F)c1C(=O)N[C@@H]1CN(C(=O)CC(C(F)(F)F)C(F)(F)F)C[C@@H]1F` [Example 761, 3-[4-amino-5-(trifluoromethyl)pyrrolo[2,1-f][1,2,4]triazin-7-yl]-2-fluoro-N-[(3R,4S)-4-fluoro-1-[4,4,4-trifluoro-3-(trifluoromethyl)butanoyl]pyrrolidin-3-yl]-6-methylbenzamide] yielded an IC50 of 0.0059 µM.
`Nc1ncnn2c(-c3cc(F)cc(C(=O)N[C@@H]4CN(C(=O)[C@@H](O)C(F)(F)F)C[C@@H]4F)c3)cc(C(F)(F)F)c12` [Example 596, 3-[4-amino-5-(trifluoromethyl)pyrrolo[2,1-f][1,2,4]triazin-7-yl]-5-fluoro-N-[(3R,4S)-4-fluoro-1-[(2R)-3,3,3-trifluoro-2-hydroxypropanoyl]pyrrolidin-3-yl]benzamide] showed an IC50 of 0.253 µM.
Molecule `Nc1ncnn2c(-c3cccc(C(=O)NCc4ccccc4Oc4ccccc4)c3)c(F)cc12` [Example 4, 3-{4-amino-6-fluoropyrrolo[2,1-f][1,2,4]triazin-7-yl}-N-[(2-phenoxyphenyl)methyl]benzamide] has an IC50 of 0.412 µM.
With `Cc1cc(-c2cc(C(F)(F)F)c3c(N)ncnn23)cc(C(=O)N[C@@H]2CN(C(=O)CC(C)(O)C(F)(F)F)C[C@@H]2F)c1Cl` (stereo partly drawn) [Example 711, 5-[4-amino-5-(trifluoromethyl)pyrrolo[2,1-f][1,2,4]triazin-7-yl]-2-chloro-N-[(3R,4S)-4-fluoro-1-(4,4,4-trifluoro-3-hydroxy-3-methylbutanoyl)pyrrolidin-3-yl]-3-methylbenzamide] the IC50 was 0.012 µM.
`Cc1nc(C)c(-c2cc(C(F)(F)F)c3c(N)ncnn23)cc1C(=O)N[C@@H]1CN(C(=O)c2ccccc2Cl)C[C@@H]1F` [Example 1186, 5-[4-amino-5-(trifluoromethyl)pyrrolo[2,1-f][1,2,4]triazin-7-yl]-N-[(3R,4S)-1-(2-chlorobenzoyl)-4-fluoropyrrolidin-3-yl]-2,6-dimethylpyridine-3-carboxamide] gave an IC50 of 0.036 µM.
Work on `Cc1cc(F)c(-c2cc(C(F)(F)F)c3c(N)ncnn23)cc1C(=O)N[C@@H]1CN(C(=O)c2cccc(C(F)(F)F)n2)C[C@@H]1F` [Example 848, 5-[4-amino-5-(trifluoromethyl)pyrrolo[2,1-f][1,2,4]triazin-7-yl]-4-fluoro-N-[(3R,4S)-4-fluoro-1-[6-(trifluoromethyl)pyridine-2-carbonyl]pyrrolidin-3-yl]-2-methylbenzamide] yielded an IC50 of 0.272 µM.
In the case of `COc1ncc(C(=O)N2C[C@H](F)[C@H](NC(=O)c3cc(-c4cc(C(F)(F)F)c5c(N)ncnn45)cnc3OC)C2)cn1` [Example 1211, 5-[4-amino-5-(trifluoromethyl)pyrrolo[2,1-f][1,2,4]triazin-7-yl]-N-[(3R,4S)-4-fluoro-1-(2-methoxypyrimidine-5-carbonyl)pyrrolidin-3-yl]-2-methoxypyridine-3-carboxamide], the IC50 was 0.116 µM.
Work on `COc1ncc(-c2cc(C(F)(F)F)c3c(N)ncnn23)cc1C(=O)NC1CN(C(=O)C(O)(C(F)(F)F)C(F)(F)F)CC1(F)F` (stereo not drawn) [Example 1835, 5-(4-amino-5-(trifluoromethyl)pyrrolo[2,1-f][1,2,4]triazin-7-yl)-N-(4,4-difluoro-1-(3,3,3-trifluoro-2-hydroxy-2-(trifluoromethyl)propanoyl)pyrrolidin-3-yl)-2-methoxynicotinamide] yielded an IC50 of 0.11 µM.
With `[2H]C([2H])([2H])Oc1ncc(-c2cc(CN3CC(F)(F)C3)c3c(N)ncnn23)cc1C(=O)N[C@@H]1CN(S(=O)(=O)CC)C[C@@H]1F` [Example 1283, 5-{4-amino-5-[(3,3-difluoroazetidin-1-yl)methyl]pyrrolo[2,1-f][1,2,4]triazin-7-yl}-N-[(3R,4S)-1-(ethanesulfonyl)-4-fluoropyrrolidin-3-yl]-2-(methoxy-d3)nicotinamide] the IC50 was 0.0024 µM.
For `Nc1ncnn2c(-c3ccc(OC(F)(F)F)c(C(=O)N[C@@H]4CN(C(=O)C5(F)CC5)C[C@@H]4F)c3)cc(C(F)(F)F)c12` [Example 1052, 5-[4-amino-5-(trifluoromethyl)pyrrolo[2,1-f][1,2,4]triazin-7-yl]-N-[(3R,4S)-4-fluoro-1-(1-fluorocyclopropanecarbonyl)pyrrolidin-3-yl]-2-(trifluoromethoxy)benzamide], the IC50 was 0.263 µM.
Work on `COc1ncc(-c2cc(F)c3c(N)ncnn23)cc1C(=O)Nc1cnn(Cc2ccccc2)c1` [Example 8, 5-{4-amino-5-fluoropyrrolo[2,1-f][1,2,4]triazin-7-yl}-N-(1-benzyl-1H-pyrazol-4-yl)-2-methoxypyridine-3-carboxamide] yielded an IC50 of 0.011 µM.
`COc1ncc(-c2cc(C(F)(F)F)c3c(N)ncnn23)cc1C(=O)N[C@@H]1CN(C(=O)NC2CCCC2)C[C@@H]1F` [Example 1837, 5-(4-amino-5-(trifluoromethyl)pyrrolo[2,1-f][1,2,4]triazin-7-yl)-N-((3R,4S)-1-(cyclopentylcarbamoyl)-4-fluoropyrrolidin-3-yl)-2-methoxynicotinamide] was tested, and the IC50 was 0.13 µM.
For `CC(CCNC(=O)c1cccc(-c2c(F)cc3c(N)ncnn23)c1)c1ccccc1` (racemic) [Example 69, 3-{4-amino-6-fluoropyrrolo[2,1-f][1,2,4]triazin-7-yl}-N-(3-phenylbutyl) benzamide], the IC50 was 0.074 µM.
`Cc1cc(F)c(-c2cc(CN3CCC(F)(F)CC3)c3c(N)ncnn23)cc1C(=O)N[C@@H]1CN(C(=O)CC(O)(C(F)(F)F)C(F)(F)F)C[C@@H]1F` [Example 1656, 5-{4-amino-5-[(4,4-difIuoropiperidin-1-yl)methyl]pyrrolo[2,1-f][1,2,4]triazin-7-yl}-4-fluoro-N-[(3R,4S)-4-fluoro-1-[4,4,4-trifluoro-3-hydroxy-3-(trifluoromethyl)butanoyl]pyrrolidin-3-yl]-2-methylbenzamide] was tested, and the IC50 was 0.001 µM.
In the case of `CCc1ccc(-c2cc(C(F)(F)F)c3c(N)ncnn23)cc1C(=O)N[C@@H]1CN(C(=O)CC(F)(F)F)C[C@@H]1F` [Example 981, 5-[4-amino-5-(trifluoromethyl)pyrrolo[2,1-f][1,2,4]triazin-7-yl]-2-ethyl-N-[(3R,4S)-4-fluoro-1-(3,3,3-trifluoropropanoyl)pyrrolidin-3-yl]benzamide], the IC50 was 0.024 µM.
With `COc1ncc(-c2cc(CN3CCC(F)(F)CC3)c3c(N)ncnn23)cc1C(=O)N[C@@H]1CN(C(=O)CC(C(F)(F)F)C(F)(F)F)C[C@@H]1F` [Example 1249, 5-{4-amino-5-[(4,4-difluoropiperidin-1-yl)methyl]pyrrolo[2,1-f][1,2,4]triazin-7-yl}-N-[(3R,4S)-4-fluoro-1-[4,4,4-trifluoro-3-(trifluoromethyl)butanoyl]pyrrolidin-3-yl]-2-methoxypyridine-3-carboxamide] the IC50 was 0.0025 µM.
`Nc1ncnn2c(-c3cc(F)c(CF)c(C(=O)N[C@@H]4CN(C(=O)C5CC(F)C5)C[C@@H]4F)c3)cc(C(F)(F)F)c12` (stereo partly drawn) [Example 616, 5-(4-amino-5-(trifluoromethyl)pyrrolo[2,1-f][1,2,4]triazin-7-yl)-3-fluoro-N-((3R,4S)-4-fluoro-1-(3-fluorocyclobutane-1-carbonyl)pyrrolidin-3-yl)-2-(fluoromethyl)benzamide] was tested, and the IC50 was 0.0025 µM.
`CCN(C)C(=O)N1C[C@H](F)[C@H](NC(=O)c2cc(-c3cc(C(F)(F)F)c4c(N)ncnn34)cnc2OC)C1` [Example 1845, 5-(4-amino-5-(trifluoromethyl)pyrrolo[2,1-f][1,2,4]triazin-7-yl)-N-((3R,4S)-1-(ethyl(methyl)carbamoyl)-4-fluoropyrrolidin-3-yl)-2-methoxynicotinamide] was tested, and the IC50 was 0.126 µM.
For `COc1ncc(-c2cc(CN3CCC(F)(F)CC3)c3c(N)ncnn23)cc1C(=O)N[C@@H]1CN(C(=O)OCC(C)C(F)(F)F)C[C@@H]1F` (stereo partly drawn) [Example 1533, 3,3,3-trifluoro-2-methylpropyl (3R,4S)-3-(5-{4-amino-5-[(4,4-difluoropiperidin-1-yl)methyl]pyrrolo[2,1-f][1,2,4]triazin-7-yl}-2-methoxypyridine-3-amido)-4-fluoropyrrolidine-1-carboxylate], the IC50 was 0.0019 µM.
Work on `COc1ncc(-c2cc(Cn3cnnn3)c3c(N)ncnn23)cc1C(=O)N[C@@H]1CN(C(=O)C2CC(F)(F)C2)C[C@@H]1F` [Example 1710, 5-(5-((1H-tetrazol-1-yl)methyl)-4-aminopyrrolo[2,1-f][1,2,4]triazin-7-yl)-N-((3R,4S)-1-(3,3-difluorocyclobutane-1-carbonyl)-4-fluoropyrrolidin-3-yl)-2-methoxynicotinamide] yielded an IC50 of 0.049 µM.
`Nc1ncnn2c(-c3ccc(C(F)(F)F)c(C(=O)N[C@@H]4CN(C(=O)CC(O)(C(F)(F)F)C(F)(F)F)C[C@@H]4F)c3)cc(C(F)(F)F)c12` [Example 891, 5-[4-amino-5-(trifluoromethyl)pyrrolo[2,1-f][1,2,4]triazin-7-yl]-N-[(3R,4S)-4-fluoro-1-[4,4,4-trifluoro-3-hydroxy-3-(trifluoromethyl)butanoyl]pyrrolidin-3-yl]-2-(trifluoromethyl)benzamide] gave an IC50 of 0.0093 µM.
`COc1ncc(-c2cc(CN3CCC(F)(F)CC3)c3c(N)ncnn23)cc1C(=O)N[C@@H]1CN(C(=O)OCC2CC2(F)F)C[C@@H]1F` (stereo partly drawn) [Example 1525, (2,2-difluorocyclopropyl)methyl (3R,4S)-3-(5-{4-amino-5-[(4,4-difluoropiperidin-1-yl)methyl]pyrrolo[2,1-f][1,2,4]triazin-7-yl}-2-methoxypyridine-3-amido)-4-fluoropyrrolidine-1-carboxylate] showed an IC50 of 0.0026 µM.
In the case of `COc1ncc(-c2cc(C(=O)NCC#N)c3c(N)ncnn23)cc1C(=O)NCC[C@H](O)c1ccc(Cl)cc1` [Example 473, 5-{4-amino-5-[(cyanomethyl)carbamoyl}pyrrolo[2,1-f][1,2,4]triazin-7-yl}-N-[(3S)-3-(4-chlorophenyl)-3-hydroxypropyl]-2-methoxypyridine-3-carboxamide], the IC50 was 0.088 µM.
`COc1ncc(-c2cc(C(F)(F)F)c3c(N)ncnn23)cc1C(=O)N[C@@H]1CN(C(C)c2ccccc2O)C[C@@H]1F` (stereo partly drawn) [Example 1392, 5-[4-amino-5-(trifluoromethyl)-pyrrolo[2,1-f][1,2,4]triazin-7-yl]-N-[(3R,4S)-4-fluoro-1-[1-(2-hydroxyphenyl)ethyl]-pyrrolidin-3-yl]-2-methoxy-pyridine-3-carboxamide] gave an IC50 of 0.0033 µM.
